The other results are listed elsewhere or left out. Cut-off read from the data, not from the text of the source: active = 3.2 or more and inactive = the rest. The signal is at background level for most entries.
Tests used:
Assay in all cases: enrichment score (SH2-bound / input frequency) (ratio); bacterial display of known human phosphotyrosine sites (pTyr-Var adds point mutants) read by sequencing; higher = stronger binding; tyrosines were phosphorylated by kinases first
Details in all cases: peptide library: pTyr-Var
[1] = biological target: SHP2 C-SH2 domain E139D
[2] = biological target: SHP2 C-SH2 domain wild-type
[3] = biological target: SHP2 N-SH2 domain L43F
[4] = biological target: SHP2 N-SH2 domain T42A
[5] = biological target: SHP2 N-SH2 domain T52S
[6] = biological target: SHP2 N-SH2 domain wild-type
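Note: displayed peptides selected on beads carrying the immobilized SH2 domain, with library peptides lacking any tyrosine serving as negative controls.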

Binder | enrichment score [1] | enrichment score [2] | enrichment score [3] | enrichment score [4] | enrichment score [5] | enrichment score [6]
CVAARYMDMKG [WFIKKN2_Y93_V96M] | inactive: 0.635 | inactive: 0.799 | inactive: 0.738 | inactive: 0.586 | inactive: 0.736 | inactive: 0.868
KLSHLYQDHMQ [WNT5A_Y86_C83S] | inactive: 1.4 | inactive: 1.22 | inactive: 1.22 | inactive: 0.849 | inactive: 0.957 | inactive: 1.05
PTKNDYWAMLA [WWOX_Y287] | inactive: 0.926 | inactive: 0.743 | inactive: 1 | inactive: 0.804 | inactive: 0.949 | inactive: 0.915
NGQALYAACQT [XDH_Y1092_V1091L] | inactive: 0.756 | inactive: 0.642 | inactive: 0.626 | inactive: 0.736 | inactive: 0.775 | inactive: 0.996
AAILGYCHGEA [XPC_Y669_R671H] | inactive: 0.831 | inactive: 1.06 | inactive: 0.94 | inactive: 0.856 | inactive: 0.94 | inactive: 0.944
HGEAVYSRDCV [XPC_Y676_R671H] | inactive: 0.687 | inactive: 0.611 | inactive: 0.555 | inactive: 0.475 | inactive: 0.631 | inactive: 0.634
IEPGIYIPEDD [XPNPEP3_Y455] | inactive: 0.669 | inactive: 0.584 | inactive: 0.746 | inactive: 0.563 | inactive: 0.668 | inactive: 2.08
KTEMLYHLTAR [XRCC2_Y59] | inactive: 1.03 | inactive: 0.772 | inactive: 0.895 | inactive: 0.889 |  | inactive: 0.859
ADRNHYRRYRR [YBX1_Y145_P149R] | inactive: 0.239 | inactive: 0.365 | inactive: 0.26 | inactive: 0.299 | inactive: 0.285 | inactive: 0.298
ADRNHYRRFPR [YBX1_Y145_YF] | inactive: 0.279 | inactive: 0.266 | inactive: 0.274 | inactive: 0.267 | inactive: 0.269 | inactive: 0.251
AYGNLYGSRKQ [YIPF7_Y59] | inactive: 0.584 | inactive: 0.498 | inactive: 0.588 | inactive: 0.709 | inactive: 0.42 | inactive: 0.42
AFGNLYGSRKQ [YIPF7_Y59_YF] | inactive: 0.445 | inactive: 0.365 | inactive: 0.503 | inactive: 0.551 | inactive: 0.464 | inactive: 0.504
KMKGEYFRFLA [YWHAG_Y130_D129E_YF] | inactive: 2.57 | inactive: 2.41 | inactive: 2.72 | inactive: 2.18 | inactive: 2.67 | inactive: 2.45
KMKGDYFCFLA [YWHAG_Y130_R132C_YF] | inactive: 1.5 | inactive: 1.71 | inactive: 1.64 | inactive: 1.43 | inactive: 1.56 | inactive: 1.61
MKGDYYCYLAE [YWHAG_Y131_R132C] | inactive: 1.41 | inactive: 1.7 | inactive: 1.15 | inactive: 0.878 | inactive: 0.886 | inactive: 2.75
MKGDFYCFLAE [YWHAG_Y131_R132C_YF] | inactive: 1.27 | inactive: 1.78 | inactive: 1.77 | inactive: 1.44 | inactive: 1.25 | inactive: 2.04
GEYYRYLAEVA [YWHAG_Y133_D129E] | inactive: 0.908 | inactive: 0.806 | inactive: 0.811 | inactive: 0.996 | inactive: 0.628 | inactive: 0.921
GEFFRYLAEVA [YWHAG_Y133_D129E_YF] | inactive: 0.959 | inactive: 0.961 | inactive: 0.825 | inactive: 0.725 | inactive: 0.719 | inactive: 0.911
AQAERYDDMAA [YWHAG_Y20_E15A] | inactive: 0.43 | inactive: 0.404 | inactive: 0.407 | inactive: 0.385 | inactive: 0.415 | inactive: 0.5

Binder | enrichment score [1] | enrichment score [2] | enrichment score [3] | enrichment score [4] | enrichment score [5] | enrichment score [6]
QSQQAYQEAFE [YWHAZ_Y149] | inactive: 0.905 | inactive: 0.765 | inactive: 0.908 | inactive: 0.686 | inactive: 0.867 | inactive: 0.853
SDVWSYGVTMW [ZAP70_Y525] | inactive: 1.04 | inactive: 0.939 | inactive: 0.755 | inactive: 0.702 | inactive: 0.949 | inactive: 1.04
LLRLAYLADVF [ZBED5_Y476_I480V] | active: 4.46 | active: 3.33 | active: 3.83 | inactive: 3.18 | active: 3.33 | active: 4.19
EITSHYRHLLR [ZBTB46_Y14] | inactive: 0.897 | inactive: 0.93 | inactive: 0.778 | inactive: 0.821 | inactive: 0.909 | inactive: 0.872
YADPYYDYEIE [ZC3H18_Y372] | inactive: 0.88 | inactive: 0.609 | inactive: 0.898 | inactive: 0.723 | inactive: 0.758 | inactive: 0.859
VLALWYYYLTH [ZDHHC23_Y127] | active: 3.2 | active: 3.61 | inactive: 2.93 | inactive: 2.33 | inactive: 2.55 | inactive: 3.03
VLALWYYYLTN [ZDHHC23_Y127_H132N] | active: 3.98 | active: 5.41 | active: 3.3 | inactive: 2.23 | inactive: 2.84 | active: 3.5
APRKVYDTRDD [ZFPL1_Y215] | inactive: 0.489 | inactive: 0.406 | inactive: 0.463 | inactive: 0.415 | inactive: 0.373 | inactive: 0.575
SFSGEYGSGGG [ZG16_Y30_G32S_YF] | inactive: 0.541 | inactive: 0.682 | inactive: 0.601 | inactive: 0.451 | inactive: 0.509 | inactive: 0.592
SFSGEYGGGGG [ZG16_Y30_YF] | inactive: 0.54 | inactive: 0.512 | inactive: 0.497 | inactive: 0.44 | inactive: 0.43 | inactive: 0.575
RGVVMYTSKDR [ZG16B_Y136_M133V] | inactive: 0.654 | inactive: 0.639 | inactive: 0.695 | inactive: 0.56 | inactive: 0.53 | inactive: 0.613
CDYKKYGKGLR [ZNF445_Y433_Y428C] | inactive: 0.928 | inactive: 1.08 | inactive: 0.928 | inactive: 1.06 | inactive: 1.04 | inactive: 1.13
HEGKIYEYNQV [ZNF665_Y162] | inactive: 0.911 | inactive: 0.736 | inactive: 0.709 | inactive: 0.817 | inactive: 0.729 | inactive: 0.906
REGKIYEYNQV [ZNF665_Y162_H157R] | inactive: 0.648 | inactive: 0.362 | inactive: 0.689 | inactive: 0.507 | inactive: 0.463 | inactive: 0.4
VHKKGYNKLNQ [ZNF676_Y98_E96K] | inactive: 1.84 | inactive: 1.49 | inactive: 1.31 | inactive: 1.4 | inactive: 1.38 | inactive: 1.28
AQINLYQDVML [ZNF806_Y33] | inactive: 1.42 | inactive: 1.08 | inactive: 1.09 | inactive: 0.957 | inactive: 1.13 | inactive: 1.04
RLIEGYTGPFK [ZNF862_Y181] | inactive: 0.899 | inactive: 1.06 | inactive: 0.823 | inactive: 0.909 | inactive: 0.915 | inactive: 0.913
RLTEGYTGPFK [ZNF862_Y181_I178T] | inactive: 1.18 | inactive: 0.634 | inactive: 0.455 | inactive: 0.657 | inactive: 0.693 | inactive: 0.729
